Reference: article PMC6140323
Substitutions are numbered along the chain they refer to. Results are given in words; binding and its absence hold for the method and conditions named. In cells and extracts the contact can be indirect. Some entries that bind do so weakly or less than the wild type. Sequences can lack the tags named with a protein.

By UniProt entry, the sequences of proteins in these tests, tags left out.
UniProt P42858: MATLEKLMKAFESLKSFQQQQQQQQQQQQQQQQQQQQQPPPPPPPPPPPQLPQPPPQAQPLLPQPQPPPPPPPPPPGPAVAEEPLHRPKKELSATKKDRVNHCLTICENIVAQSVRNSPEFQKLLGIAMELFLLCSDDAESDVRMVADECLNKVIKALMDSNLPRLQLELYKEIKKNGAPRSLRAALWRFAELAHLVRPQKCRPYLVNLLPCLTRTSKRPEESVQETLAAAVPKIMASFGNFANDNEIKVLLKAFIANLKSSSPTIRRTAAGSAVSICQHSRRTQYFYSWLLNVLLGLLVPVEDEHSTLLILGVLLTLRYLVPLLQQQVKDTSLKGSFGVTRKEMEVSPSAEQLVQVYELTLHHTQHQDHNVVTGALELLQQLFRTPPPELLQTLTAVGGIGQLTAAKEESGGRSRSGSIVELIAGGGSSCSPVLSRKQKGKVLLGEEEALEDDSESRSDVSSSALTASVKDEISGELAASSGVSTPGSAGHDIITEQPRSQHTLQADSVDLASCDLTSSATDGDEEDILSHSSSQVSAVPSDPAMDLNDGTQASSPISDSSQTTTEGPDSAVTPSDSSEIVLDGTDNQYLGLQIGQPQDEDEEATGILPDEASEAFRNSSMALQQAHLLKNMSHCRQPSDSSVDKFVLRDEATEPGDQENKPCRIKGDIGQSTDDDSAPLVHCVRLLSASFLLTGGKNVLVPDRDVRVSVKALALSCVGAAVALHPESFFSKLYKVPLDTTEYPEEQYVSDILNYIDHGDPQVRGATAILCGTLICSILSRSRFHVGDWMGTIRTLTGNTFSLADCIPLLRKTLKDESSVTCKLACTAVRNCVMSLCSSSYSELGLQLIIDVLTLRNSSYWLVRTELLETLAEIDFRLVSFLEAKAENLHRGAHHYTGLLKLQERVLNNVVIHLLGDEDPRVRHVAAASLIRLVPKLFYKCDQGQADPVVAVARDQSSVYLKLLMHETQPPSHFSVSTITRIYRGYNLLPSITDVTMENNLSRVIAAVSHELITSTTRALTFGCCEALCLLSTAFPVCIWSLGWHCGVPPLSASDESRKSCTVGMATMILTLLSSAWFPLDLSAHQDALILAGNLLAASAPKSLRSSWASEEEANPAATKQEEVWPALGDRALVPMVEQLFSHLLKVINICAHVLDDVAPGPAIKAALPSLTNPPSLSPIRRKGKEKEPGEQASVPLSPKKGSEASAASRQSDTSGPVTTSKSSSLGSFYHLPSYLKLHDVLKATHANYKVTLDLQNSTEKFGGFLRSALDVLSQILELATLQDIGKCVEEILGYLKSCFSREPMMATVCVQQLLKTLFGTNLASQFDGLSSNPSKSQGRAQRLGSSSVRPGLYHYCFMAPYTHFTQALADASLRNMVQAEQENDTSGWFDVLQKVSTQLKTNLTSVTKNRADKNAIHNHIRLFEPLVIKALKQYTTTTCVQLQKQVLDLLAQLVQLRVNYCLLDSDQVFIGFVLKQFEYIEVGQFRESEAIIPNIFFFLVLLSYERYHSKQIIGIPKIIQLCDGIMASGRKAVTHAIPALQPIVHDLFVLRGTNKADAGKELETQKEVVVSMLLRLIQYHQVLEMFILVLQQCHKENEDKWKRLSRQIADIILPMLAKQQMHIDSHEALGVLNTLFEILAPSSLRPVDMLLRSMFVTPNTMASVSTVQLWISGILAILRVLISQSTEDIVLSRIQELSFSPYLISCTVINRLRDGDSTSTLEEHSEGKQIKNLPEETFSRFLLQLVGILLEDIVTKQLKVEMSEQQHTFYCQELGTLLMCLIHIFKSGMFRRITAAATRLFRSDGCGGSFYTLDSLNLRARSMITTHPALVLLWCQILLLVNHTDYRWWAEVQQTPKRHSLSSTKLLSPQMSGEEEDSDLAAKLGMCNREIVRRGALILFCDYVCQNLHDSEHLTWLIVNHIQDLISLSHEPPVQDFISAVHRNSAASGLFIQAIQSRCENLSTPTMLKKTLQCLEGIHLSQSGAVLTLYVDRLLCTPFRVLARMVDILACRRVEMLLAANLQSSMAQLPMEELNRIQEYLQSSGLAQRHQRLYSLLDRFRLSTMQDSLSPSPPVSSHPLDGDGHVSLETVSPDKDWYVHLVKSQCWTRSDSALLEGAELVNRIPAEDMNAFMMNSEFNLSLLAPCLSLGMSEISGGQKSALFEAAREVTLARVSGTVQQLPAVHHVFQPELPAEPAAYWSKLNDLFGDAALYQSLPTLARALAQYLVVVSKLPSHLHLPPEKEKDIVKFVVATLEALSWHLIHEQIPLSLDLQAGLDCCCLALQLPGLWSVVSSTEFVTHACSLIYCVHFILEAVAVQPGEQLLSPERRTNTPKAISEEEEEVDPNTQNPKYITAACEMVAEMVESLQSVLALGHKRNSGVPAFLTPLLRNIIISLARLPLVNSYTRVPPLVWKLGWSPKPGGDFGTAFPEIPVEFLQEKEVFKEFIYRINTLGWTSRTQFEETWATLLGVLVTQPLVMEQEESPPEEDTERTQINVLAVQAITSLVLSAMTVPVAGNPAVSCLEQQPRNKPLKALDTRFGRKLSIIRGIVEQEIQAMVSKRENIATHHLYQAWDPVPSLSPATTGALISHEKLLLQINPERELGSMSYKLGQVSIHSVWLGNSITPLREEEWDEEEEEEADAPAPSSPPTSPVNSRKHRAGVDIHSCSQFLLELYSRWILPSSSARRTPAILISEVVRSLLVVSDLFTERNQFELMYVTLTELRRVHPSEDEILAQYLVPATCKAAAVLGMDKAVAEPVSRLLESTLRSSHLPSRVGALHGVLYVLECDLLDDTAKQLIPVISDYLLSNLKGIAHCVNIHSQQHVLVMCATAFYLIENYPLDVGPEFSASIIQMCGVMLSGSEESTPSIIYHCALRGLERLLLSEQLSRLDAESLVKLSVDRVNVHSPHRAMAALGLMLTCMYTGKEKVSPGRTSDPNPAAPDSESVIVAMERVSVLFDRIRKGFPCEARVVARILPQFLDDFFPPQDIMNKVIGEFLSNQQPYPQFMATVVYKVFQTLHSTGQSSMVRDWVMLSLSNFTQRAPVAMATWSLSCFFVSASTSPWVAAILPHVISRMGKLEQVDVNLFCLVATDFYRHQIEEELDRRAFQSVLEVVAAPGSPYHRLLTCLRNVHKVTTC

Key:
Test in all cases: co-IP; GFP-nanotrap precipitation of GFP-tagged constructs from transiently transfected HEK293-T lysates (50 mM Tris-HCl pH 7.4, 0.5% NP40), 1 h at 4°C; western blot for endogenous Htt and septins
[1] = biological target: T1, GFP-SNX20 (GFP-tagged full-length sorting nexin-20) (UniProt Q7Z614)
T1 sequence: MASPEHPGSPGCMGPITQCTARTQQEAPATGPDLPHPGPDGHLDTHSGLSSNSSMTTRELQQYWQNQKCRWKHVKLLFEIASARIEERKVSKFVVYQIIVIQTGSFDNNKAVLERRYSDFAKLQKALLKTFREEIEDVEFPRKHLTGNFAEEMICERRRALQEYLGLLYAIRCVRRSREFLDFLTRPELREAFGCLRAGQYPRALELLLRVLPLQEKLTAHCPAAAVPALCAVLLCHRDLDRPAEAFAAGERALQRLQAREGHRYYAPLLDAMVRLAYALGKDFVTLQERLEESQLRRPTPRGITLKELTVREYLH

[2] = biological target: T2, GFP-SNX21(D48K) (human) (UniProt Q969T3)
T2 sequence: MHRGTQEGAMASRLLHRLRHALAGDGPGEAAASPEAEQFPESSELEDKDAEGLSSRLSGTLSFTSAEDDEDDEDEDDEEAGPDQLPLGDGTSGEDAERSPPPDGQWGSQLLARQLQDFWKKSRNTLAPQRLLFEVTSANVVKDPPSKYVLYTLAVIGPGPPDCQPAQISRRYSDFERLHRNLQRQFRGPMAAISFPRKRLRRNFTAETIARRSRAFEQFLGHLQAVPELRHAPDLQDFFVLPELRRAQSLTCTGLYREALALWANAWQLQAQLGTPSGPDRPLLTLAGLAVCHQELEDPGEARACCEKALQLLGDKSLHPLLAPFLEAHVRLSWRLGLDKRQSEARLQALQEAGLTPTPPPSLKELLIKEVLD

[3] = biological target: T3, GFP-SNX21 (N-terminal GFP-tagged full-length human sorting nexin-21) (human) (UniProt Q969T3)
T3 sequence: T2 sequence with K48D

[4] = biological target: T4, GFP-SNX21(D48K, D49K) (human) (UniProt Q969T3)
T4 sequence: T2 sequence with D49K

[5] = biological target: T5, GFP-SNX21(L363A) (human) (UniProt Q969T3)
T5 sequence: T2 sequence with K48D, L363A

[6] = biological target: T6, GFP-SNX21(K364E) (human) (UniProt Q969T3)
T6 sequence: T2 sequence with K48D, K364E

- binding [1]: no binding
- binding [2]: binds
- binding [3]: binds
- binding [4]: no binding
- binding [5]: binds
- binding [6]: binds
Substance: huntingtin (Htt), endogenous (from UniProt P42858 1-3142)
